The test system of this assay is NCI-H322M lung. The experiment in a line: inhibition of tumour cell growth, NCI panel, 48 h.

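1) Cells in 96-well plates. 2) Compound, 48 h, 5 concentrations. 3) Linear interpolation between surrounding doses. 4) Unreached endpoint = highest concentration. Here, GI50 denotes the concentration required for 50% inhibition of growth. TGI: concentration producing complete growth inhibition.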

Drawing on PubChem BioAssay (NCI), this text covers GI50 and TGI for two molecules.

Turning to `COc1cc(/C=C/C(=O)c2cnn(-c3cc(=O)[nH]c4ccc(C)cc34)c2C)cc(OC)c1OC`, the GI50 was 2.78 µM and the TGI was 10 µM.

For `N#Cc1ccc(-c2nn(-c3ccc(C(=O)O)cc3)cc2CNc2cc(Cl)cc(C(F)(F)F)c2)cc1`, the GI50 was 10.7 µM and the TGI was determined as 26.8 µM.
